Measurements reported in paper PMC4081100.
The list shows a part of the results, in another mix than the full data. For part of these data: At the low end of the ranking the order means little. The list shows a part of the results. For part of these data: The source does not settle which construct or isoform was used.

Experiments:
Assay in all cases: universal protein binding microarray (PBM)
Conditions in all cases: transcription factors of Arabidopsis thaliana; high values mean tight binding; most listed sequences are background and not binding sites; double strand, one strand shown
GST-NTL6(1-168) = GST-NTL6(1-168) (UniProt Q9SCK6)
GST-ANAC055(1-171) = molecular target: T1, GST-ANAC055(1-171) (UniProt Q9LDY8)
T1 sequence: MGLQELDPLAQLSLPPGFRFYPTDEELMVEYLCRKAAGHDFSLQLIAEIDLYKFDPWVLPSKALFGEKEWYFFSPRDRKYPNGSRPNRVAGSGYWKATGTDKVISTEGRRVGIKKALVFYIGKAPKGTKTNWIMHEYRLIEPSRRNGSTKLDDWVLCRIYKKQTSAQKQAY

GST-NAP(1-166) = molecular target: T2, GST-NAP(1-166) (UniProt O49255)
T2 sequence: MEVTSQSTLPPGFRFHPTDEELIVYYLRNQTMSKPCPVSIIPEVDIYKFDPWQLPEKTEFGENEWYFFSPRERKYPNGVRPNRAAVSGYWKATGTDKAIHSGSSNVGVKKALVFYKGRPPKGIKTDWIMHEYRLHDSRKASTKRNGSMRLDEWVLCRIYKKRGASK

GST-NTL8 NAC domain = molecular target: T3, GST-NTL8 NAC domain (UniProt Q9XIN7)
T3 sequence: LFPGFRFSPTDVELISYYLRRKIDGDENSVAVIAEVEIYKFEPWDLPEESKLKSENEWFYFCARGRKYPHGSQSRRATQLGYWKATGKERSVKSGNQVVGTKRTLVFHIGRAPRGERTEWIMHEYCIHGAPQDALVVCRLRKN

[1] = molecular target: T4, GST-VOZ2 (Arabidopsis thaliana) (UniProt Q9SLB9)
T4 sequence: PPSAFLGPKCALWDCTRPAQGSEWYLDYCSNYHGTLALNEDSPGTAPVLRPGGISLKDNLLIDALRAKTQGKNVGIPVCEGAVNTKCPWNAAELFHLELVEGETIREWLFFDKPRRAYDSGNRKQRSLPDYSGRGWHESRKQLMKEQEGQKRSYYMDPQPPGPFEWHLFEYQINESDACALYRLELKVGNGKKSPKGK

GST-WRKY1(266-371) = GST-WRKY1(266-371) (UniProt Q9SI37)
GST-ATAF1 NAC domain = molecular target: T5, GST-ATAF1 NAC domain (UniProt Q39013)
T5 sequence: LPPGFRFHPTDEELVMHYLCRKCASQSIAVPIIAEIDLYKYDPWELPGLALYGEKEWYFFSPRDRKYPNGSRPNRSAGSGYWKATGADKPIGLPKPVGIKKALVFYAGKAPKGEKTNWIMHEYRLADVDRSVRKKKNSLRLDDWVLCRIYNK

[2] = molecular target: T6, GST-ANAC092(1-285) full length (UniProt Q9FKA0)
T6 sequence: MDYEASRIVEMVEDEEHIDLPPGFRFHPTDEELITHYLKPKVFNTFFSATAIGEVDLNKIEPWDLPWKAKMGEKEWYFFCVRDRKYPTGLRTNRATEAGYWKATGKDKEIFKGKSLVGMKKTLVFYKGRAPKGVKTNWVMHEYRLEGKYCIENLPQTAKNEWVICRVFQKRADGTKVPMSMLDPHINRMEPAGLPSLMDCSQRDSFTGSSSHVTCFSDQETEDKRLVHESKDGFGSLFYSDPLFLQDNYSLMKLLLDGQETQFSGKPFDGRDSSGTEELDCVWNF

GST-NST2(1-184) = molecular target: T7, GST-NST2(1-184) (UniProt Q9M274)
T7 sequence: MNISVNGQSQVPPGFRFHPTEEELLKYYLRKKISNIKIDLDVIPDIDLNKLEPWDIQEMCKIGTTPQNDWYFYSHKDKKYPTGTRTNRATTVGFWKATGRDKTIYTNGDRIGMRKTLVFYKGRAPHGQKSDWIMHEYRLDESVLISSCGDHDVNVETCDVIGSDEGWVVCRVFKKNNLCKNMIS

GST-ANAC019 NAC domain = molecular target: T8, GST-ANAC019 NAC domain (UniProt Q9C932)
T8 sequence: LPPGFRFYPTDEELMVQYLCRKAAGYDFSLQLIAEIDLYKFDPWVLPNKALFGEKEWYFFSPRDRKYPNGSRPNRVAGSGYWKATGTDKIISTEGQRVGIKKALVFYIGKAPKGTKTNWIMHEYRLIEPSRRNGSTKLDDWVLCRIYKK

Sequence	binding signal (GST-NTL6(1-168))	binding signal (GST-ANAC055(1-171))	binding signal (GST-NAP(1-166))	binding signal (GST-NTL8 NAC domain)	binding signal [1]	binding signal (GST-WRKY1(266-371))	binding signal (GST-ATAF1 NAC domain)	binding signal [2]	binding signal (GST-NST2(1-184))	binding signal (GST-ANAC019 NAC domain)
CACGCATC	-0.0123 E-score	0.291 E-score	0.309 E-score	-0.0379 E-score	0.00487 E-score	-0.0944 E-score	–	–	–	–
AGGGAAAA	0.201 E-score	0.111 E-score	0.117 E-score	0.416 E-score	0.0746 E-score	-0.0385 E-score	0.187 E-score	0.0865 E-score	-0.00265 E-score	–
TCACGGCA	0.00228 E-score	0.438 E-score	0.344 E-score	0.0475 E-score	0.033 E-score	-0.031 E-score	–	0.429 E-score	–	–
CACGCCAC	-0.0816 E-score	0.268 E-score	–	0.00013 E-score	0.152 E-score	0.026 E-score	–	0.488 E-score	–	–
ATGGCGTG	-0.105 E-score	0.138 E-score	0.161 E-score	-0.0386 E-score	0.0701 E-score	-0.154 E-score	–	–	–	–
AATACGCA	0.109 E-score	0.293 E-score	–	-0.053 E-score	0.0896 E-score	0.00445 E-score	–	–	–	–
ACACGGCA	-0.0852 E-score	–	–	–	-0.0784 E-score	-0.0389 E-score	0.446 E-score	–	0.245 E-score	0.485 E-score
GCAAGCAA	0.26 E-score	0.0669 E-score	-0.028 E-score	0.0916 E-score	-0.0433 E-score	-0.202 E-score	-0.0645 E-score	0.42 E-score	0.28 E-score	–
TGCGTAAA	0.0301 E-score	0.131 E-score	–	0.0652 E-score	0.261 E-score	-0.0164 E-score	–	–	0.291 E-score	0.205 E-score
GTACGGAA	0.0481 E-score	–	–	0.00277 E-score	0.102 E-score	-0.00172 E-score	0.369 E-score	0.376 E-score	0.138 E-score	–
GCACGCTA	-0.0984 E-score	–	0.0433 E-score	-0.0548 E-score	-0.0751 E-score	-0.101 E-score	0.0329 E-score	–	–	–
AAGGAAAT	0.384 E-score	–	0.06 E-score	0.466 E-score	0.11 E-score	-0.0335 E-score	–	0.163 E-score	–	0.147 E-score
CTAAGCAA	0.461 E-score	-0.023 E-score	-0.051 E-score	0.254 E-score	0.0371 E-score	-0.0224 E-score	-0.0209 E-score	–	–	–
ATTTCGTG	-0.00813 E-score	–	0.133 E-score	-0.0332 E-score	0.109 E-score	-0.0503 E-score	–	–	–	0.174 E-score
ACGCAACG	-0.0424 E-score	–	–	–	0.137 E-score	0.02 E-score	0.27 E-score	0.463 E-score	0.3 E-score	–
TGCCGTAA	0.114 E-score	–	–	–	0.0353 E-score	-0.14 E-score	0.436 E-score	–	0.328 E-score	–
ACACGTAA	0.0392 E-score	–	–	0.017 E-score	-0.00517 E-score	-0.0409 E-score	0.439 E-score	0.481 E-score	0.316 E-score	–
ACGGCAAT	0.0399 E-score	–	0.236 E-score	–	0.0117 E-score	-0.0412 E-score	–	–	–	0.409 E-score
GTAGCGTA	0.111 E-score	–	0.27 E-score	0.0358 E-score	0.288 E-score	-0.0235 E-score	–	–	0.381 E-score	0.0436 E-score
CACGTAAC	0.047 E-score	–	–	0.242 E-score	0.0797 E-score	-0.125 E-score	0.436 E-score	–	–	0.479 E-score
AGACGCAA	0.0768 E-score	0.246 E-score	–	0.107 E-score	0.0678 E-score	0.0554 E-score	–	–	–	0.222 E-score
CGTCAACG	-0.145 E-score	0.0304 E-score	–	-0.227 E-score	-0.0599 E-score	0.47 E-score	–	–	-0.036 E-score	–
AAGTAAGC	0.404 E-score	–	–	0.337 E-score	-0.0642 E-score	-0.073 E-score	0.199 E-score	–	–	–
CACGTCAC	-0.0881 E-score	0.396 E-score	–	-0.109 E-score	0.0211 E-score	0.0034 E-score	0.374 E-score	–	–	–
CACGCCAA	-0.0669 E-score	–	–	0.0657 E-score	0.138 E-score	-0.0898 E-score	0.16 E-score	0.451 E-score	–	0.185 E-score
GCGTGTTA	0.0115 E-score	0.174 E-score	–	0.0415 E-score	0.121 E-score	-0.107 E-score	–	–	–	–
AAGTAAAG	0.432 E-score	0.168 E-score	0.0549 E-score	0.27 E-score	0.0765 E-score	0.000705 E-score	–	–	–	–
ACACTCAA	0.0392 E-score	–	0.07 E-score	–	0.113 E-score	0.133 E-score	–	–	–	0.116 E-score
AAATTGAC	0.156 E-score	–	0.136 E-score	0.0641 E-score	0.154 E-score	0.45 E-score	0.228 E-score	–	–	0.134 E-score
